This assay deals with T1, in vitro translated [35S]-labeled Ldb2 (mouse, UniProt O55203 1-373, [35S]-methionine label).
T1 construct: Made with the TNT coupled transcription/translation kit; also called Ldb2 FL; CLIM1
T1 sequence (looked up): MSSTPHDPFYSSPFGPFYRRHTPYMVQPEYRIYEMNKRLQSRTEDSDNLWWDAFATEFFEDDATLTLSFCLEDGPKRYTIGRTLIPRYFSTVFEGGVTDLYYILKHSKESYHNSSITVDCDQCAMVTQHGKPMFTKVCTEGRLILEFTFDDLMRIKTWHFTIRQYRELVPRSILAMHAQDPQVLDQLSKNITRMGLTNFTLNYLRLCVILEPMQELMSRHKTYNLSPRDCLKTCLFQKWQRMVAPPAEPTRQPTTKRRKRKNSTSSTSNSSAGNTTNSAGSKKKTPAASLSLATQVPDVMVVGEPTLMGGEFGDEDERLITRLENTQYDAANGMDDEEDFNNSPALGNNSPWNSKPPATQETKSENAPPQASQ
The experiment in a line: GST pulldown of [35S]-labeled in vitro translated Ldb2. Here is the method: Interactions of Ldbs and SLK were confirmed by direct binding assays. In vitro translated Ldbs labeled with [35S]-methionine was incubated with various GST-SLK fusion protein deletions (FIGS. 16c and d). […] Ldb1 was also able to bind directly to the SLK-ATH domain in vitro in a manner that was indistinguishable from Ldb2 (not shown).

B1: GST alone (other)
chain: not shown
notes: Control in the pulldown assays
Regarding B1, the binding result is “no binding”.

Values taken from patent US20090081195A1 (OTTAWA HEALTH RESEARCH INSTITUTE, published 2009).
